Results on 25 molecules are retold here after publication PMC4336329 (PLoS ONE, 2015).

SMILES strings stand for the structures. About 14,000 (4.5%) of roughly 310,000 compounds showed an effect of 50% or more. The effect is printed as a negative number. The list shows a part of the results.
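Note: peak tail current of the secondary pulse compared with the same well before compound.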

This assay deals with human ether-à-go-go-related gene (hERG) potassium channel (human, UniProt Q12809). Put plainly: primary screen, population patch clamp on CHO cells stably expressing hERG.
human ether-à-go-go-related gene (hERG) potassium channel, sequence (Q12809 whole entry, looked up): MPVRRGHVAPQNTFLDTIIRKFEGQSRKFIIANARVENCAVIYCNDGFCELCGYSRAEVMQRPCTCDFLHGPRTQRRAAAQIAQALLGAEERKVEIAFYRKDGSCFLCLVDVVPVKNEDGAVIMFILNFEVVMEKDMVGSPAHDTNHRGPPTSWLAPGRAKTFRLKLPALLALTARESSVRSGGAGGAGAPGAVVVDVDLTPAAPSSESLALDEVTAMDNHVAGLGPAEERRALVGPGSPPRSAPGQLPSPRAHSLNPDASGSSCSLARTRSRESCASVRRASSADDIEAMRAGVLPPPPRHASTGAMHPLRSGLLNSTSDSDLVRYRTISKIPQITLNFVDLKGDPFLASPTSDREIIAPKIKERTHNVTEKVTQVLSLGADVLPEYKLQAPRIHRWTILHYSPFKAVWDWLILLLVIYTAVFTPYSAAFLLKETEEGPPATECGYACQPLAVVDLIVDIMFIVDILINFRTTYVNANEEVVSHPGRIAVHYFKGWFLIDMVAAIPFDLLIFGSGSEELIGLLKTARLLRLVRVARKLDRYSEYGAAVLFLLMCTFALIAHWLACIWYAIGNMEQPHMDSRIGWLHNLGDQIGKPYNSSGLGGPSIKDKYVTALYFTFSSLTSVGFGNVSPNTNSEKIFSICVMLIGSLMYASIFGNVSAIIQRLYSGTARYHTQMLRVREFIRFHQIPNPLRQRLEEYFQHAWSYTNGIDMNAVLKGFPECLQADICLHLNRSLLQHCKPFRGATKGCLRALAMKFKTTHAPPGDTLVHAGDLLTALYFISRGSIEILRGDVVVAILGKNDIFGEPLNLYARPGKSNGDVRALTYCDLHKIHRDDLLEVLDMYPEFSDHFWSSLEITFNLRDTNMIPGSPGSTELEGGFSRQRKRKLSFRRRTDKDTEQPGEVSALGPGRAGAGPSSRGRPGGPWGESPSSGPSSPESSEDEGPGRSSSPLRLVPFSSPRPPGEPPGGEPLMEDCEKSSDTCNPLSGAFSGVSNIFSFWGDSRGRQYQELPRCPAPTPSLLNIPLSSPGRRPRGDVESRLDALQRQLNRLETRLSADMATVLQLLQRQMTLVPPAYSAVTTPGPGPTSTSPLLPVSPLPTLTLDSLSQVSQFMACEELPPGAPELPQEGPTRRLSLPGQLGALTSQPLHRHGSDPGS
As for `O=C(N/N=C/c1c[nH]c2ccc(Br)cc12)c1ccn(Cc2ccc(Cl)cc2)n1`, the “hERG current change (%, negative = inhibition) at 10uM” value worked out at 17.9%.
To `NS(=O)(=O)c1ccc2nc(NC(=O)CS(=O)(=O)c3ccccc3)sc2c1` belongs 26.8%; to `O=C(O)c1ccccc1C(=O)NNc1ccc(F)cc1`, 20.4%.
To `CCOc1ccc(NC(=S)N(CCc2c(C)[nH]c3ccc(C)cc23)Cc2ccncc2)cc1` belongs -3.99%; to `Cc1c(C(=O)Nc2ccc(Oc3ccccc3)cc2)sc2nc3n(c(=O)c12)CCC3`, 0.214%; to `Cc1nn(C)c(C)c1C(=O)NN`, 12.9%.
As for `CCCCn1c(O)c(C=NCCCn2ccnc2)c(=O)[nH]c1=O`, the “hERG current change (%, negative = inhibition) at 10uM” value was 9.41%.
To `O=C(c1ccc([N+](=O)[O-])cc1)N1CCN(c2ncccn2)CC1` belongs -77.8%; to `CCOc1ccccc1NC(=O)CSc1nnc(CNC(=O)c2ccco2)o1`, -7.77%; to `CCOC(=O)c1[nH]c2ccc(OC)cc2c1NC(=S)N1CCN(c2ccccc2OC)CC1`, 3.9%.
To `COC(=O)c1c(-c2ccccc2)c(-c2ccccc2)nn(C)c1=O` belongs 6.22%; to `CCC1(C)NC(=O)N(/N=C/c2cc(OC)c(O)c(OC)c2)C1=O` (stereo not shown), 20.8%; to `COc1ccc(Cl)cc1-c1n[nH]c(=S)n1Cc1ccccc1`, 15%.
In the case of `Cc1cc(C(=O)CSc2nc(N)cc(N)n2)c(C)n1C1CC1` it was 22.6%.
With `COc1ccc(OS(=O)(=O)Cc2ccccc2)cc1`, the “hERG current change (%, negative = inhibition) at 10uM” value worked out at 5.11%.
In the case of `CCN(C(=O)c1ccc2c(c1)OCO2)C1CCS(=O)(=O)C1` (stereo not shown) it was 9.27%; in that of `COC(=O)c1ccc(Cn2cc(Cl)cn2)cc1`, 5.02%.
To `CCC1(C)OC(=O)N2CCc3c(C)[nH]c4c(C)ccc(c34)C21C` (stereo not shown) belongs -1.17%.
To `Cc1cc(C(=O)N2CCN(C(=O)c3ccco3)CC2)ccc1[N+](=O)[O-]` belongs -64.7%; to `CCCCN(C(=O)c1ccc(-c2ccc([N+](=O)[O-])cc2)o1)c1c(N)n(CCCC)c(=O)[nH]c1=O`, -9.84%; to `CCCOc1ccc(C(=O)N2CCN(c3ccc(NC(=O)CC)cc3Cl)CC2)cc1`, -77%.
For the molecule `COc1cc2c(cc1OC)-c1cc(NCc3ccccn3)nc(=O)n1CC2`, the “hERG current change (%, negative = inhibition) at 10uM” value was -0.823%.
To `Cc1nnc(NC(=O)NC(C)N2C(=O)C3C4C=CC(C4)C3C2=O)s1` (stereo not shown) belongs 15.5%.
In the case of `Cc1ccc(NNC(=O)CCc2ccccc2)c(C)c1` it was 12.9%; in that of `S=c1[nH]nc(-c2ccc(Cl)cc2)n1-c1ccc(Cl)cc1`, 14.1%.
